Data from PMC4336329 (PLoS ONE, 2015).
Hit rate of the full screen: of about 310,000 compounds, about 2,200 (0.71%) showed an effect of 50% or more. Effects have a minus sign here. The list shows a part of the results.

These compounds were tested against human ether-à-go-go-related gene (hERG) potassium channel (human, UniProt Q12809) (assay: primary screen, population patch clamp on CHO cells stably expressing hERG).
human ether-à-go-go-related gene (hERG) potassium channel, sequence (Q12809 whole entry, looked up): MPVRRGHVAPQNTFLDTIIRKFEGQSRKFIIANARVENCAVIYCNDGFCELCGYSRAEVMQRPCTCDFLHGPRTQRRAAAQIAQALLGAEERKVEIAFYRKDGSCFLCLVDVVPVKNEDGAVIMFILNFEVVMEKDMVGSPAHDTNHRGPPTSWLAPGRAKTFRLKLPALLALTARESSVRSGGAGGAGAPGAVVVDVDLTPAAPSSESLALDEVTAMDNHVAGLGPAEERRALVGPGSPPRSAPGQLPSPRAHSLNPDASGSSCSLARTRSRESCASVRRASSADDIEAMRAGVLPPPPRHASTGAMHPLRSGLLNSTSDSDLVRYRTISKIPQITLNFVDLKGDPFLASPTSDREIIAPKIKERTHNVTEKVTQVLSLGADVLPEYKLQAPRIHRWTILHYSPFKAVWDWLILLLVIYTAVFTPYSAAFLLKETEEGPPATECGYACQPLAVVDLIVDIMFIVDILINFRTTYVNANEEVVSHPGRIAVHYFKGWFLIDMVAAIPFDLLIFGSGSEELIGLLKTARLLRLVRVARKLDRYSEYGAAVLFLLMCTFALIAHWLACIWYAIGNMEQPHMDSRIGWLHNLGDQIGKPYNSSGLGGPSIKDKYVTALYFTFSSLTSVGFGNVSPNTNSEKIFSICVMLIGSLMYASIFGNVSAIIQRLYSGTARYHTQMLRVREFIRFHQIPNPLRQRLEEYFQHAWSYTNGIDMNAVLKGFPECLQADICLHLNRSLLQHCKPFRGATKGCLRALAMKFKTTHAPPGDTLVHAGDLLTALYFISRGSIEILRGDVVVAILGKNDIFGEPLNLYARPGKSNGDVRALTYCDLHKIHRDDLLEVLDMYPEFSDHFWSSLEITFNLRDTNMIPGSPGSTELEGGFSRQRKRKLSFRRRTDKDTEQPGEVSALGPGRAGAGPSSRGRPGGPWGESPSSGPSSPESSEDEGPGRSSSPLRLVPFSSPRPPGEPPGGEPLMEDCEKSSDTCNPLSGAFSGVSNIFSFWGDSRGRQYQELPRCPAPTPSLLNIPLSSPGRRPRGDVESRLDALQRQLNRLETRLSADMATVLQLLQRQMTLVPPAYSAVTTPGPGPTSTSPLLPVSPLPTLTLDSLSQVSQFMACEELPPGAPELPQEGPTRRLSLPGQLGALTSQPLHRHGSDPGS

Row | Compound | hERG current change (%, negative = inhibition) at 1uM [%]
1 | CCCc1cc(=O)oc2cc(C)cc(OC(C)C(=O)NCCCN3CCOCC3)c12 (stereo not drawn) | 3.98
2 | O=c1[nH]c2c(s1)C(c1ccco1)C1C3CCC(C3)C1S2 (stereo not drawn) | 11.4
3 | CC(=NCCN1CCOCC1)C1=C(O)c2ccccc2C1=O | 7.92
4 | O=[N+]([O-])c1ccc(Sc2cccc3cccnc23)c([N+](=O)[O-])c1 | 3.58
5 | Cc1c(NC(=O)c2cc(-c3ccc(Cl)cc3)on2)c(=O)n(-c2ccccc2)n1C | -14.7
6 | CCOC(=O)C1=C(Nc2ccccc2)CC(C)(O)C(C(=O)OCC)C1c1ccc(Cl)cc1 (stereo not drawn) | 17.5
7 | O=C(NCC1CCCO1)c1cc2ccccc2oc1=O (stereo not drawn) | 7.63
8 | C=C(C)CNC(=S)Nc1ccc(S(=O)(=O)Nc2cnc3ccccc3n2)cc1 | 5.66
9 | Cc1cccc(Nc2c([N+](=O)[O-])ccc3nonc23)c1 | 14
10 | CCOc1ccc(Nc2nc(N)nc(CN(C)C3CCCCC3)n2)cc1 | -58.2
11 | Cl.OCCN1CCN(CC(O)COCC2COc3ccccc3O2)CC1 (stereo not drawn) | 21.1
12 | Cc1c(C(=O)NC2CC(=O)N(c3ccc4c(c3)OCCO4)C2)cccc1[N+](=O)[O-] (stereo not drawn) | 13.6
13 | Cl.Nc1ccc(N2CCN(CCCCN3C(=O)C4CCCN4C3=O)CC2)cc1.O (stereo not drawn) | 18.3
14 | CCOC(=O)c1c(N)c(C#N)c2n1CCCC2 | 8.06
15 | CNC(=O)c1ccsc1NC(=O)C1CCCN1S(=O)(=O)c1cccs1 (stereo not drawn) | 17
16 | CCOC(=O)C1Cn2c(nc3c(c2=O)C(C)(C)Cc2ccccc2-3)S1 (stereo not drawn) | 8.81
17 | Cc1ccc(CNC(=O)CCS(=O)(=O)c2ccc3c(c2)CC(C)N3C(=O)C2CC2)o1 (stereo not drawn) | 17.6
18 | CCN(CC)C(=O)C1CCCN(Cc2ccc3c(c2)OCO3)C1 (stereo not drawn) | 13.1
19 | Cc1nc(-c2cccc(S(=O)(=O)N3CCOCC3)c2)cs1 | 8.88

Row | Compound | hERG current change (%, negative = inhibition) at 1uM [%]
20 | CC(=O)Nc1ccc(NC(=O)c2c(C)noc2C)cc1 | 16.9
21 | Cc1ccccc1Nc1nccc(N(C)C)c1C#N | 9.74
22 | O=C(CSc1cccs1)Nc1ccc2ccccc2c1 | 1.11
23 | O=c1c2sccc2nc(SCc2ccc([N+](=O)[O-])cc2)n1Cc1ccccn1 | -24.8
24 | O=C(Nc1ccc2ccccc2c1)c1cc(F)c(F)cc1Cl | 15.4
25 | Cc1ccc(S(=O)(=O)CCC(=O)N2CCN(c3ccc(Cl)cc3)CC2)cc1 | 7.69
26 | CC(O)[C@@H](C(=O)N1CCNCC1)n1cc(CCCCN)nn1.Cl (stereo partly drawn) | 13.1
27 | Cc1onc(-c2ccccc2)c1C(N)=O | 11.4
28 | CCCc1cc(-c2n[nH]c(C)c2-c2ccc(C(=O)OCC)o2)c(O)cc1O | 5.01
29 | Cc1ccc(-c2cc(O)cc3sc(=O)oc23)cc1C | 11.7
30 | COCCN(C(=O)Nc1ccc(OC)cc1)c1nc2ccccc2s1 | 15.3
31 | CCOc1cc(-c2noc(N)c2C(=O)OC)cc(OCC)c1OCC | 11.4
32 | COC(=O)c1cc2ccc(OC)c(OC)c2c(=O)s1 | 17.9
33 | Cc1ccc(C(=O)N2CCC(N3CCC(C(=O)N4CCOCC4)CC3)CC2)cc1C | 4.34
34 | O=C(CCCC(=O)c1ccccc1)NCc1ccccc1 | 8.58
35 | Nc1ccccc1N1CCN(C(=O)c2ccccc2)CC1 | 11.7
36 | Cc1ccnc2nc(C(=O)Nc3nc(-c4ccccn4)cs3)nn12 | 6.39
37 | O=C1CC(c2ccco2)Cc2nc(N3CCN(Cc4ccc5c(c4)OCO5)CC3)ncc21 (stereo not drawn) | -0.693
38 | O=C(Cn1cc([N+](=O)[O-])cn1)Nc1ccn(Cc2c(F)c(F)cc(F)c2F)n1 | -8.28

Row | Compound | hERG current change (%, negative = inhibition) at 1uM [%]
39 | COc1ccc(NC(=S)Nc2ccc(N(C)C(C)=O)cc2)cc1 | 4.91
40 | COc1cc(C(=O)Nn2c(C)nc3ccccc3c2=O)cc(OC)c1OC | 15.5
41 | Cc1ccc(C)n1-n1cnc2scc(-c3cccs3)c2c1=O | 3.04
42 | Cc1cc(C)c(NC(=O)/C=C\C(=O)O)c([N+](=O)[O-])c1 | 7.13
43 | Cc1c(C(=O)OCC(=O)NCCN2C(=O)CSC2=O)oc2c1ccc1ccccc12 | 5.9
44 | Cc1ccccc1OCC(O)Cn1c(NCCN(C)C)nc2c1c(=O)n(C)c(=O)n2C (stereo not drawn) | -0.21
45 | CN(Cc1ccccc1)C(=O)CCS(=O)(=O)c1ccc2c(c1)oc(=O)n2C | 9.53
46 | COc1ccc(OCCNC(=O)CSc2ccc(C(F)(F)F)cc2[N+](=O)[O-])cc1 | -11.4
47 | COc1cccc(C2C(C(=O)c3cc4ccccc4o3)=C(O)C(=O)N2CCN(C)C)c1OC (stereo not drawn) | 7.5
48 | COc1ccc(NC(=O)C2CCCN(S(=O)(=O)c3ccc4c(c3)CCCN4C(C)=O)C2)cc1 (stereo not drawn) | 14.2
49 | CCNc1nc(NCC)nc(N/N=C/c2ccc(OC)cc2)n1 | 12.1
50 | COCCCNC(=O)CNC(=O)c1nn(-c2ccc(OC)cc2)c(=O)c2ccccc12 | 11.1
51 | COc1ccc(OC)c(N(CC(=O)N2CCN(Cc3ccccc3)CC2)S(C)(=O)=O)c1 | 0.475
52 | CCCNC(=O)NC(=O)CSc1ccc2c(c1)OCCO2 | 14.5
53 | O=C1c2ccc(Oc3ccc4c(c3)C(=O)N(CCCO)C4=O)cc2C(=O)N1CCCO | 2
54 | CC1CCN(S(=O)(=O)c2cccc(C(=O)Nc3nncs3)c2)CC1 | -3.64
55 | O=C(CNC(=O)c1ccc2ccccc2c1)NCc1ccc(F)cc1 | 14.7
56 | COc1ccccc1CNCc1ccc(OC)c(OC)c1OC.O=C(O)C(=O)O | 6.76
57 | COc1ccc(Nc2ncnc3sc(-c4ccccc4)cc23)cc1 | -9.06
